Some of the results follow.
Test system: T1, C. trachomatis L2/434/Bu expressing GFP (CTL2-GFP)
T1 construct: L2/434/Bu GFP intracellular growth in HeLa cells
Design: species or system HeLa; C. trachomatis total inclusion area by high-content imaging, normalised to DMSO
Conditions: total inclusion area; 28.5 h, 10 µM; inhibitor
Outline: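 Post-fluorescence-read fixation, DNA staining with Hoechst and high-content imaging; GFP inclusion area and number per well, and nuclei counts, used as proxies for bacterial growth and host viability.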

Row | Compound | % of control remaining
1 | Cn1cc(CCC(=O)NC(Cc2ccncc2)[C@H]2C[C@H](O)C2)cn1 (stereo partly drawn) [CBK307292] | 95.0618
2 | O=C(CN(c1ccccc1)S(=O)(=O)c1ccccc1[N+](=O)[O-])NC1CCCCC1 [CBK262328] | 97.1005
3 | NC(=O)CCN1CCCC2(CCN(C(=O)c3ccoc3)C2)C1 (stereo not drawn) [CBK132816] | 92.3157
4 | NS(=O)(=O)c1ccc(Nc2nc(-c3ccccc3)c(CC(=O)O)s2)cc1 [CBK131899] | 86.6933
5 | COc1ccc(N2C(=O)CC(NCCNc3ccc([N+](=O)[O-])cn3)C2=O)cc1 (stereo not drawn) [CBK263593] | 101.317
6 | Cc1cnn(C2CCCN(C(=O)CC3C(=O)Nc4ccccc43)C2)c1 (stereo not drawn) [CBK304930] | 40.057
7 | O=C(NC/C=C/c1cn(C2CC(O)C(CO)O2)c(=O)[nH]c1=O)C(F)(F)F (stereo not drawn) [CBK201249] | 105.57
8 | O=C(NNC(=O)c1ccccc1C(=O)O)c1cccc(Cl)c1 [CBK261658] | 119.218
9 | CCN1CCN(c2ccc(NC(=O)c3ccc([N+](=O)[O-])c(C)c3)cc2)CC1 [CBK266503] | 139.013
10 | CCn1cc(C(C)NC(=S)Nc2ccc(OC)cc2OC)c(C)n1 (stereo not drawn) [CBK266950] | 102.588
11 | CN1CCN(C(=O)CCn2c(C(F)F)cc3cccnc32)CC1 [CBK285023] | 108.146
12 | COC(=O)c1ccc(-c2ccc(Cl)c(Cl)c2)nc1 [CBK149231] | 118.373
13 | COc1ncc(-c2cc(N3CCN(c4ccccn4)CC3)ncn2)c(OC)n1 [CBK037707] | 141.544
14 | O=C(CC1C(=O)N(c2cccc(Cl)c2)C(=O)N1CCc1cccs1)Nc1ccccc1 (stereo not drawn) [CBK267499] | 93.3533
15 | Cc1cc(NS(=O)(=O)c2ccc3oc(=O)ccc3c2)n(C)n1 [CBK067250] | 108.361
16 | O=c1[nH]c(=O)c2cc(S(=O)(=O)NCCN3CCc4ccccc43)ccc2[nH]1 [CBK286360] | 139.594
17 | Oc1cccc2ccc(/C=C/c3ccc(-c4ccccc4Cl)o3)nc12 [CBK264445] | 115.221
18 | CC1CCC(NC(=O)CN2C3CCC2CC(O)(c2ccco2)C3)CC1 (stereo not drawn) [CBK284036] | 94.6647
19 | O=c1c2cnn(-c3ccccc3)c2nc(Cc2ccccc2)n1-c1cccc2ccccc12 [CBK262316] | 134.845
20 | CCOC(=O)N1CCN(S(=O)(=O)c2ccc3oc(=O)ccc3c2)CC1 [CBK305870] | 62.4324
21 | NC(=O)CN1CC2(CCN(Cc3ccc(Cl)c(Cl)c3)CC2)c2ccccc21 [CBK126775] | 74.5825
22 | Cc1cc(C)c2[nH]c(C(=O)NCc3c(C)n[nH]c3C)c(C)c2c1 [CBK283254] | 92.65
23 | Cc1cccc(N2CCN(CCCC(c3ccc(F)cc3)c3ccc(F)cc3)CC2)n1 [CBK025113C] | 84.1647
24 | CCN(CC)Cn1nc(Nc2ccccc2)n(-c2ccccc2)c1=S [CBK261672] | 111.189
25 | O=C(O)c1cc2oc3ccccc3c3ccccc3oc2cc1C(=O)Nc1cccc([N+](=O)[O-])c1 [CBK265500] | 102.416
26 | O=S1(=O)CCC(SCc2ccccc2)C1 (stereo not drawn) [CBK019237] | 113.36

Row | Compound | % of control remaining
27 | CC(=O)c1c(C)nn2c3ccccc3n(CCN3CCOCC3)c12 [CBK262709C] | 99.1266
28 | O=C(CSc1ccccc1[N+](=O)[O-])Oc1ccccc1 [CBK265501] | 92.9205
29 | CCn1c(C2CCN(C(=O)CCCn3cncn3)CC2)nn(C)c1=O [CBK307326] | 52.2244
30 | Cc1ccccc1OCC(=O)N1CC(=O)Nc2ccccc21 [CBK300535] | 67.4735
31 | Clc1ccc(COc2cc(N3CCCN(CC4CC4)CC3)ncn2)cc1Cl [CBK084070] | 99.3204
32 | CCOc1ccc(S(=O)(=O)N(CC)CC(=O)O)cc1C [CBK269770] | 74.1291
33 | CCc1nnc(NS(=O)(=O)c2ccc(NC(=S)NC(=O)c3ccco3)cc2)s1 [CBK018917] | 32.997
34 | O=C(O)CCc1ccc(-c2cc(N3CCN(c4ccccn4)CC3)ncn2)cc1 [CBK037821] | 81.5849
35 | CC(=O)c1ccc(N(C)C)cc1 [CBK033830] | 55.7241
36 | CNC(=O)c1cccc(NC(=O)c2cc(Br)cnc2NCC2CC2)c1 [CBK076380] | 70.4596
37 | COc1cc(C2NC(C(=O)O)Cc3c2[nH]c2ccccc32)cc(OC)c1OC (stereo not drawn) [CBK219193] | 90.2573
38 | CC(=O)N1CCc2c(nc(N(C)C)nc2NCCCOC(C)C)C1 [CBK306745] | 97.9014
39 | Cn1c(CN2CCN(C3CCCC3)C(=O)C2)nc2ccccc21 [CBK281577] | 86.0729
40 | Cc1ccc(C2C3=C(CC(C)(C)CC3=O)Nc3[nH][nH]c(=O)c32)o1 (stereo not drawn) [CBK288147] | 108.639
41 | Cc1ccc(C(=O)N(C)C2CCCCC2)cc1C [CBK083667] | 111.353
42 | Cc1ccnc(Sc2nc3c(c(=O)[nH]c(=O)n3C)n2CCCc2ccccc2)n1 [CBK269353] | 91.7489
43 | O=C(NCC1CCCO1)c1cc(S(=O)(=O)N2CCOCC2)c(Cl)cc1Cl (stereo not drawn) [CBK269691] | 61.8037
44 | COc1cccc(C2(O)CCCC3CN(C(C)=O)CC32)c1 (stereo not drawn) [CBK283242] | 108.346
45 | COc1cc(OC)cc(C(=O)Nc2cc(C)c3c(=O)oc4ccccc4c3n2)c1 [CBK291221] | 85.2953
46 | CCCc1cc(C(N)=O)cc(CCC)c1OCC [CBK015537] | 85.2729
47 | CC1CCCN(Cc2ccccc2[N+](=O)[O-])C1 (stereo not drawn) [CBK261862] | 78.7564
48 | O=C(NC(Cc1ccsc1)c1nccs1)C1CC2C=CC1O2 (stereo not drawn) [CBK285096] | 91.1527
49 | O=C1CC[C@@H](NCc2ccoc2)[C@H](c2cc(F)cc(F)c2)N1 [CBK282912] | 82.1354
50 | Cc1ccc(C)c2nc3c(cc12)CN(C1CC1)C(=O)CO3 [CBK282858] | 109.214
51 | CC(C)/N=C1/N[C@@H]2CS(=O)(=O)C[C@H]2O1 [CBK019692G] | 87.21
